Data taken from PubChem BioAssay AID360 (National Center for Advancing Translational Sciences (NCATS), 2006).
Out of some 48,000 compounds screened, about 550 (1.1%) were called active. Another 4% or so got no clear call; they are omitted. Cut-off read from the data, not from the text of the source: active = potency below about 15 µM; inconclusive = mostly about 16 µM to 33 µM; inactive = weaker than that. Some of the results follow.

Target: Lysosomal acid glucosylceramidase (Homo sapiens) (UniProt P04062)
Sequence of UniProt P04062 (P04062 whole entry, looked up): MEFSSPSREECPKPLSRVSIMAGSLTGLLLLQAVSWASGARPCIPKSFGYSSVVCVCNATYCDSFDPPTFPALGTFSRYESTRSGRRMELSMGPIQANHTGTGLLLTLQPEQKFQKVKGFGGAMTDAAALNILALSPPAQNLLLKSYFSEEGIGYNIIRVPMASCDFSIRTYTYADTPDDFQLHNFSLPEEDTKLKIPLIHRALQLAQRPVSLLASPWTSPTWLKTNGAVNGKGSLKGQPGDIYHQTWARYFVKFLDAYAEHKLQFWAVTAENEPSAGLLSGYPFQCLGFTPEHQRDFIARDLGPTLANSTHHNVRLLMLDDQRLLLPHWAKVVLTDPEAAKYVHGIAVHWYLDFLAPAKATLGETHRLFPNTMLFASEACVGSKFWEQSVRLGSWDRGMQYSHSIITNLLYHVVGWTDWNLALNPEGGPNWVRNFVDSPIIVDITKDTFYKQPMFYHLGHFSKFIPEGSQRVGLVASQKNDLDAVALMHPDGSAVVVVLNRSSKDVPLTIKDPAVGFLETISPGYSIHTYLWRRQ
Assay: Glucocerebrosidase;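 note: the screen sought inhibitors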
Conditions: purified enzyme, resorufin glucoside fluorescence (screen aimed at inhibitors), 20 min
Method in brief: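 Wild-type enzyme at 0.2 nM final in 50mM citric acid/KH2PO4, 10mM sodium taurocholate, 0.01% tween-20, pH 5.9, with resorufin beta-D-glucopyranoside at 30 uM final. Compounds titrated, 20 min at RT, red fluorescence read; AC50 from titration.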
Potency is the fitted concentration of half-maximal effect.

Potency, inactive:
C/C(O)=C\c1nc(=O)c2c(C)cc(C)nc2n1-c1ccccc1 > 76.9 µM, Cc1noc(C)c1S(=O)(=O)N1CCC(C(=O)N2CCN(Cc3ccc4c(c3)OCO4)CC2)CC1 > 76.9 µM, CCCSc1nc2c(cnn2-c2ccc(Cl)cc2)c(=O)[nH]1 > 76.9 µM, COC(=O)c1ccc2c(=O)n(CCN3CCOCC3)c(=S)[nH]c2c1 > 76.9 µM, CCN1CC=C2C(C#N)=C(N)C(C#N)(C#N)C(CCc3ccccc3)C2C1 (stereo not drawn) > 76.9 µM, CSc1nnc(NC(=O)c2ccc(C)c(S(=O)(=O)N3CCOCC3)c2)s1 > 76.9 µM, CCCCN(C)CCCNC(=O)CS(=O)Cc1nc(-c2ccc(OC)c(OC)c2)oc1C (stereo not drawn) > 76.9 µM, O=C1CC(N2CCOCC2)C(=O)N1c1ccccc1Cl (stereo not drawn) > 76.9 µM, O=C(CCSc1ccccc1)N1CCN(C(=O)c2ccco2)CC1 > 76.9 µM, Cc1cc(NC2C3CC4CC(C3)CC2C4)n2ncnc2n1 (stereo not drawn) > 76.9 µM, CCN(C(=O)c1coc(=O)c2ccccc12)c1cc(OC)ccc1OC > 76.9 µM, Cc1ccc(S(=O)(=O)Cc2ccc(C(=O)N3CCN(c4cc(C)ccc4C)CC3)o2)cc1, COc1ccc2c(c1)C1(Nc3ccccc3-c3nc4ccccc4n31)C(=O)N2C (stereo not drawn) > 76.9 µM, Cc1ccccc1-c1ccc(C=Nc2c(C)n(C)n(-c3ccccc3)c2=O)o1 > 76.9 µM, CCN1C(=O)C(O)(C2COC(C)(C)CC2=O)c2cc(Br)ccc21 (stereo not drawn) > 76.9 µM, CCSc1oc(-c2ccccc2)nc1S(=O)(=O)c1ccccc1 > 76.9 µM, O=C(Oc1ccc(Cl)cc1N1C(=O)CCC1=O)c1ccco1 > 76.9 µM, Cc1nn(-c2ccccc2)c(Cl)c1C(=O)Nc1nnc(C2CCCC2)s1 > 76.9 µM, CCC1CCCCN1C(=O)CSc1nnc(CNC(=O)c2cc(OC)c(OC)c(OC)c2)o1 (stereo not drawn) > 76.9 µM, Cn1cc(C(=O)c2ccccc2)cc1-c1nc2ccccc2n1C > 76.9 µM, COc1cc(OC)cc(-c2nnc(SCC(=O)N3CCOCC3)o2)c1 > 76.9 µM, Cn1c(SCc2ccccc2)nnc1-c1ccncc1 > 76.9 µM, COc1ccc(C(=O)CSc2nnc(-c3ccccn3)n2Cc2ccco2)cc1 > 76.9 µM, N#Cc1nc(Cc2cccc3ccccc23)oc1NCCCN1CCOCC1 > 76.9 µM, COc1cccc(C2C(C#N)=C(N)Oc3c2oc(CO)cc3=O)c1OC (stereo not drawn) > 76.9 µM, C=CCn1c(N)cc(=O)nc1SCC(=O)Nc1ccccc1 > 76.9 µM, Cc1c(Cl)ccc2c1NC(=O)[C@]21N[C@@H](CCC(N)=O)[C@H]2C(=O)N(c3ccc(F)cc3)C(=O)[C@H]21 > 76.9 µM, CCOC(=O)N1CCN(C2CC(=O)N(c3ccc(C)cc3)C2=O)CC1 (stereo not drawn) > 76.9 µM, Cn1nnnc1SCc1cn2cccnc2n1 > 76.9 µM, COc1ccc(CCC(=O)NCc2cn3ccsc3n2)cc1 > 76.9 µM, Cc1cnc(NC(=O)CCCSc2nc3ccccc3s2)s1 > 76.9 µM, CCN(CC)C(=O)CSc1nc2ncc(Cl)cc2[nH]1 > 76.9 µM, Cc1cc(Br)ccc1NC(=O)CNC(=O)CN(C)Cc1nc2ccccc2c(=O)[nH]1 > 76.9 µM, Cc1cccc(N(C)S(=O)(=O)c2cccc3nsnc23)c1 > 76.9 µM, CCC(=O)Nc1cc(C(F)(F)F)ccc1N1CCOCC1 > 76.9 µM, CC(C)CNC(=O)COc1ccc2c3c(c(=O)oc2c1)CCC3 > 76.9 µM, COc1ccc(OC)c(-c2cc(C(=O)N3CCN(c4ncccn4)CC3)c3ccccc3n2)c1 > 76.9 µM, CCOc1ccc(-c2nnn(CC(=O)c3ccc4c(c3)OCCO4)n2)cc1 > 76.9 µM, CCOC(=O)c1ccc(NC(=O)CCc2nc(-c3ccc(Cl)cc3)no2)cc1 > 76.9 µM, NC(=O)NC(Cc1ccccc1)C(=O)NCC1(N2CCCCC2)CCCCC1 (stereo not drawn) > 76.9 µM, O=C(CCCc1nc2ccccc2s1)N1CCN(S(=O)(=O)c2cccs2)CC1 > 76.9 µM, N#CCCn1c(SCC(=O)N2CCN(S(=O)(=O)c3ccccc3)CC2)nc2ccccc21 > 76.9 µM, O=S(=O)(Cc1ccccc1)N1CCN(Cc2ccccc2)CC1 > 76.9 µM, CC1CCCC(C)N1CCNC(=O)C1CCN(S(=O)(=O)N2CCCCC2)CC1 (stereo not drawn) > 76.9 µM, CC(C)Oc1ccc(C(=O)N(Cc2ccco2)C2CCS(=O)(=O)C2)cc1 (stereo not drawn) > 76.9 µM, COCCn1nnnc1C(c1ccc2ncccc2c1)N1CCN(c2ccccc2F)CC1 (stereo not drawn) > 76.9 µM, Cc1ccc(S(=O)(=O)CCC(=O)Nc2ccc3c(c2)OCO3)cc1 > 76.9 µM, COc1ccc2nc(SCC(=O)N3CCCCCC3)c(C#N)cc2c1 > 76.9 µM, CCOc1ccccc1NC(=O)NC1(C(=O)N2CCN3CCCC3C2)CCCCC1 (stereo not drawn) > 76.9 µM, CCOC(=O)C1=C(C)N(C)C(=O)NC1c1cc2c(cc1Br)OCO2 (stereo not drawn) > 76.9 µM, COc1ccc2c3c(cccc13)NN=C2C > 76.9 µM, COc1cccc(C(CC(=O)NCc2ccco2)NS(=O)(=O)c2ccc(C)cc2)c1OC (stereo not drawn) > 76.9 µM, COc1cc(-c2nc3cnccn3c2Nc2ccc3c(c2)OCCO3)ccc1O > 76.9 µM, CCCS(=O)(=O)N1CCC(C(=O)NCc2ccco2)CC1 > 76.9 µM, CCC(Oc1ccccc1)C(=O)Nc1nnc(C(F)(F)F)s1 (stereo not drawn) > 76.9 µM, O=C(Nc1ccc2c(c1)OCO2)C1CCCN(S(=O)(=O)Cc2ccccc2)C1 (stereo not drawn) > 76.9 µM, COc1cc(NC(=O)c2ccc(Br)o2)ccc1NC(=O)c1ccccc1Cl > 76.9 µM, COc1cc(C(=O)OCC(=O)N(C)Cc2ccccc2)cc(OC)c1OC > 76.9 µM, CCn1c(C(=O)N2CCCC(C(=O)NCCc3ccc(C)cc3)C2)cc2sccc21 (stereo not drawn), Cc1nc(-c2ccc(C(=O)N3CCOCC3)cc2)cs1 > 76.9 µM, CCCn1c(=O)c2ccccc2n2c(SCCOc3ccc(Cl)cc3)nnc12 > 76.9 µM, O=C(NCC1COc2ccccc2O1)c1c[nH]c2ccc(S(=O)(=O)N3CCOCC3)cc2c1=O (stereo not drawn) > 76.9 µM, O=C(NCc1ccc(Cl)cc1)c1noc2c1CCCC2 > 76.9 µM, Cc1onc(-c2ccccc2Cl)c1C(=O)NCCCN1CCOCC1 > 76.9 µM, Cc1ccc(-c2nnn(Cc3nc4ccccc4s3)n2)cc1 > 76.9 µM, COc1ccccc1C(=O)Nc1ccccc1SC > 76.9 µM, CCOC(NC(=O)c1ccccc1)C(NC(=O)c1ccccc1)OCC (stereo not drawn) > 76.9 µM, N#Cc1ccc(OCC(=O)N2CCN(S(=O)(=O)c3cccs3)CC2)cc1 > 76.9 µM, COC(=O)c1ccc(CSc2nc(-c3ccc(OC)cc3)nc3c2c(=O)n(C)c(=O)n3C)o1 > 76.9 µM, CC(=O)Nc1ccc(OCC(O)CN2CCN(c3ccc(C)c(Cl)c3)CC2)cc1 (stereo not drawn) > 76.9 µM, COCc1cc(=O)[nH]c(SCC(=O)Nc2ccccc2)n1 > 76.9 µM, O=C(Cc1nn[nH]n1)NCCC1=CCCCC1 > 76.9 µM, O=C1CCCC2=C1C(c1ccc3c(c1)OCO3)c1c([nH]n(-c3ccccc3)c1=O)N2 (stereo not drawn) > 76.9 µM, Cc1csc(NC(=O)c2ccccc2O)n1 > 76.9 µM, COc1ccccc1OCC(=O)Nc1oc(-c2ccccc2)c(-c2ccccc2)c1C#N > 76.9 µM, CC1CCCN(C(=O)c2ccc3nc[nH]c3c2)C1 (stereo not drawn) > 76.9 µM, Cc1cc(C)c2cc(C#N)c(NCCCNC(=O)CCC(=O)O)nc2c1 > 76.9 µM, CCC(C)(C)n1nnnc1CN(Cc1ccco1)Cc1cc2cc3c(cc2[nH]c1=O)OCO3 > 76.9 µM, CC(C)OC(=O)Nc1ccc(Oc2c(F)c(F)c(F)c(F)c2F)cc1 > 76.9 µM, COc1ccc(N2CCN(S(=O)(=O)c3ccc(C(=O)NC4CCCC4)cc3)CC2)cc1 > 76.9 µM, Cc1ccc(NCN2C(=O)c3ccccc3C2=O)c(C)c1 > 76.9 µM, CCCN(CCC)C(=O)Cn1c(=O)n(CCCCC(=O)NC2CCCC2)c(=O)c2ccccc21 > 76.9 µM, COC(=O)c1[nH]c2ccccc2c1NC(=O)CNC1CCCCC1 > 76.9 µM, CN(C(=O)Cn1c(=O)n(CCCCC(=O)NC2CCCC2)c(=O)c2ccccc21)C1CCCCC1 > 76.9 µM, Cc1ccnc(SCCn2c(N3CCOCC3)nc3c2c(=O)[nH]c(=O)n3C)n1 > 76.9 µM, CCOC(=O)C1CCN(C(=O)COC(=O)CCOc2ccc(C)cc2)CC1 > 76.9 µM, CC(C)(C)NC(=O)NC(=O)COc1ccccc1C#N > 76.9 µM

Potency, active:
N#Cc1ccc(-c2nnnn2-c2ccc3c(c2)OCO3)cc1 14.8 µM
